# Measured values published in PubChem BioAssay AID686979 (National Center for Advancing Translational Sciences (NCATS), 2013).
# Among all 420,000 compounds or so, about 50,000 (12%) were called active. Inconclusive results, whose numbers are uncertain, are shown with a selection of clear calls. Calls come from the whole dose curve; as a rule, active = well fitted inhibition curve with a large enough effect; inconclusive = small, poorly fitted or top-dose-only effect; inactive = flat fitted curve, though single readings scatter. Potencies of inconclusive entries are left out as doubtful fits.
# Assay: qHTS for Inhibitors of human tyrosyl-DNA phosphodiesterase 1 (TDP1): qHTS in cells in presence of CPT; note: nearly all actives have a fitted effect of over 55% in size
# Details: chicken DT40 Tdp1-/-;hTDP1 cells + 20 nM CPT, ATP luminescence, 48 h; activity change, negative = growth inhibition: at 46.2 µM (top of the series) unless noted
# Outline: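 Cell growth measured by CellTiter-Glo luminescence after a minimum 48 h, 37 C compound exposure with 20 nM CPT in Tdp1-knockout DT40 cells stably expressing hTDP1, seeded 400/well; qHTS titration format.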
# % is set by controls: 0 for no effect and ±100 for the full control effect; potency is the fitted concentration of half-maximal effect; tags give direction and shape of the fitted curve.
SMILES,Potency,"activity change, negative = growth inhibition"
CC1CCN(C(=O)c2cc(-c3cccc(Cl)c3)on2)CC1,"inconclusive [inhibitor, partial curve, poor fit]",
COc1ccc(NC(=O)/C(C#N)=C\c2cc(C)n(-c3ccc(Oc4ccc([N+](=O)[O-])cn4)cc3)c2C)cc1,"inconclusive [inhibitor, partial curve]",
Cc1ccc(OCc2nnc(SCc3cc(=O)[nH]c4ccccc34)n2-c2ccccc2)cc1,"inconclusive [inhibitor, single point]",
CC1CC(c2ccccc2)n2nc(N3C(=O)c4ccccc4C3=O)nc2N1 (stereo not drawn),,inactive: -0.787%
CCOC(=O)C1CCN(c2cc3c(cc2NC(=O)c2ccccc2Br)n(C)c(=O)n3C)CC1,"inconclusive [inhibitor, single point]",
COc1ccc(CCNc2oc(-c3ccc(OC)c(OC)c3)nc2P(=O)(OC)OC)cc1OC,,inactive: -29.5%
Nc1nonc1-n1nnc(C(=O)N/N=C/c2ccncc2)c1CSc1ccc(Cl)cc1,"inconclusive [inhibitor, single point]",
O=S(=O)(c1ccccc1)c1nc(-c2cccs2)oc1NCc1cccnc1,,inactive: -10.3%
COc1ccc(N2C(=O)c3ccccc3NC23CCCCC3)cc1,"inconclusive [inhibitor, partial curve, poor fit]",
CC(C)c1ccc(NS(=O)(=O)c2ccc3[nH]cc(C(=O)N4CCCC4)c(=O)c3c2)cc1,,inactive: 8.41%
Cc1[nH]n(-c2ccccc2)c(=O)c1C(=O)Nc1ccccc1,active: 8.2 µM,
COc1ccc(C(=O)O)cc1S(=O)(=O)Nc1ccc(N2CCCCC2)cc1,,inactive: 3.37%
CCOc1ccc(CC(=O)N2N=C(C)CC2(O)C(F)(F)F)cc1 (stereo not drawn),active: 18.4 µM,
CCOc1ccc(Cl)cc1-c1cc(C(=O)NC2CCCCC2)[nH]n1,active: 18.4 µM,
CN(C)S(=O)(=O)c1cccc(NC(=O)c2ccc3nccnc3c2)c1,active: 13 µM,
NC(=O)c1cccc(-c2ccnc3c2CC(C(=O)NCc2ccco2)O3)c1 (stereo not drawn),active: 3.66 µM,
COc1ccc(OC)c(CNC(=O)CCCn2nc(C)c3c(C)n(-c4ccc(C)cc4)nc3c2=O)c1,active: 23.1 µM,
O=C(Cn1ncc2c3ccccc3n(Cc3ccccc3)c2c1=O)Nc1ccccc1C(F)(F)F,"inconclusive [inhibitor, partial curve]",
CCOC(=O)C1CCCN(C(=O)c2sc3nc(C)nc(N(CC)CC)c3c2C)C1 (stereo not drawn),active: 23.1 µM,
CSCC[C@H](NC(=O)[C@H](Cc1ccccc1)n1c(=O)[nH]c2ccccc2c1=O)C(=O)N1CCC[C@H]1C(=O)O,,inactive: -0.0518%
Brc1cnc(N2CCCCC2)nc1N1CCOCC1,,inconclusive: -34.8% [inhibitor]
CCOc1ccc(NC(=O)Nc2ccc3snnc3c2)cc1,"inconclusive [inhibitor, single point]",
COc1ccc(CCNC(=O)COc2ccc(-c3ccccc3)cc2)cc1OC,,inactive: -19.7%
Nn1c(C2CCCCC2)nc2ccccc2c1=O,"inconclusive [inhibitor, single point]",
COc1ccc(CN2C(=O)C(CC(=O)NCCc3ccccn3)CC(C(=O)N(C(C)C)C(C)C)=C2C)cc1 (stereo not drawn),,inconclusive: -30.4% [inhibitor]

SMILES,Potency,"activity change, negative = growth inhibition"
Cc1ccc(S(=O)(=O)NCC(NCc2ccc(F)cc2)c2ccccc2)cc1 (stereo not drawn),"inconclusive [inhibitor, single point]",
Cc1ccc(S(=O)(=O)N2CCOCC2)cc1NC(=O)CNCc1ccc(Cl)cc1Cl,"inconclusive [inhibitor, single point]",
CCOC(=O)N(O)c1ccc(C=Cc2ccccc2)cc1,active: 11.6 µM,
CCOc1ccc2[nH]c(=O)c(CN(Cc3nnnn3Cc3ccccc3)CC3CCCO3)cc2c1 (stereo not drawn),"inconclusive [inhibitor, partial curve]",
Cc1cccc(C(=O)NC(=S)Nc2ccc(S(=O)(=O)N3CCCCC3)cc2)c1,active: 18.4 µM,
O=C(c1ccc([N+](=O)[O-])cc1)N1CCSC1c1ccc(Br)cc1 (stereo not drawn),"inconclusive [inhibitor, partial curve, poor fit]",
O=C(COC(=O)c1ccc[n+]([O-])c1)Nc1ccc([N+](=O)[O-])cc1Cl,,inactive: -3.94%
CC(C)C[C@H](NC(=O)OC(C)(C)C)c1nnc(SCc2ccccc2)o1,"inconclusive [inhibitor, partial curve, poor fit]",
CC(C)(C)OC(=O)N[C@H](/C=C/c1ccccc1)C(=O)OC(C)(C)C,"inconclusive [inhibitor, partial curve, poor fit]",
CC(C)C1CCN(C(=O)C2CCC(=O)N(CCc3ccc(Cl)cc3)C2)CC1 (stereo not drawn),"inconclusive [inhibitor, single point]",
Cc1ccc(N2CCN(/N=C/C3=C(N4CCOCC4)C(=C\c4ccccc4)/CC3)CC2)cc1,,inactive: -16.3%
CCc1ccc(CNC(=O)c2ccc3nc(C(C)C)oc3c2)cc1,"inconclusive [inhibitor, single point]",
Cc1nn(S(=O)(=O)c2ccccc2)c(C)c1Sc1ccc([N+](=O)[O-])cc1,"inconclusive [inhibitor, single point]",
COc1ccc(OCC(=O)Nn2c(-c3ccc(OC)cc3)nc3ccccc3c2=O)cc1,,inactive: -3.11%
CS(=O)(=O)N1CCN(c2ccc(NC(=S)NC(=O)c3ccc4c(c3)OCO4)cc2)CC1,,inactive: -16.5%
O=C(Nc1ccc(CN2CCS(=O)(=O)CC2)cc1)c1ccc(Cl)cc1,,inactive: -4.83%
CC[C@]12c3[nH]c4cc(CCC(=O)N(C)C)ccc4c3CCN1C(=O)[C@@H](CC(=O)NCc1ccc(OC)c(OC)c1)C[C@@H]2C(=O)N1CCN(C(=O)C2CC2)CC1,"inconclusive [inhibitor, single point]",
Cc1nc(Nc2ccccc2F)c2nnn(Cc3ccccc3Cl)c2n1,,inactive: -15.9%
CCNC(=O)c1cc2c(c(-c3cccc(-c4ccccc4F)c3)n1)[C@@H](CCO)N(C(=O)CC1CC1)C2,active: 20.6 µM,
CC(=O)c1cccc(NC(=O)c2cc(-c3ccncc3)nc3ccccc23)c1,"inconclusive [inhibitor, single point]",
O=c1c2ccccc2nc2c3ccccc3c(NCCO)nn12,active: 13 µM,
Cn1ccc2c(OCC(=O)NCc3ccccc3Cl)cccc2c1=O,"inconclusive [inhibitor, single point]",
COc1cccc(-c2ccc3c(c2)C2CC3CCN2C(=O)c2ccc(-c3ccccc3)cc2)c1 (stereo not drawn),"inconclusive [inhibitor, single point]",
COc1ccc(NC(=O)CCOc2ccccc2C)cc1S(=O)(=O)N1CCCCC1,active: 29.1 µM,
Cc1ccc(NC(=O)c2cc(S(=O)(=O)N3CCCC3)cn2C)cc1,,inactive: 15.4%

SMILES,Potency,"activity change, negative = growth inhibition"
COc1ccccc1/C=N/NC(=O)CSc1cc(C)nc2ccccc12,active: 7.31 µM,
Cc1nn(-c2nc(-c3ccc(F)cc3)cc(C(F)(F)F)n2)c(C)c1Cl,active: 18.4 µM,
Cn1cc(-c2ccc(C(=O)NCc3cccc(Cl)c3)c3occc23)cn1,"inconclusive [inhibitor, single point]",
CC(=O)c1cc2c(cc1NC(=O)CSc1ncccn1)OCO2,,inactive: -12.2%
COc1ccc(C2C/C(=N\O)C(C)(C)O2)cc1 (stereo not drawn),"inconclusive [inhibitor, single point]",
COc1ccccc1/C=C1\SC(=S)N(CCC(=O)NCCc2ccc(O)cc2)C1=O,"inconclusive [inhibitor, single point]",
CC(=O)c1cccc(N=Nc2c(C)[nH]c3ccccc23)c1,,inconclusive: -30.3% [inhibitor]
Cc1ccc(C(=O)NCc2nc3ccccc3[nH]2)o1,,inactive: -0.786%
Cc1nn(Cc2ccc([N+](=O)[O-])cc2)c(=O)n1-c1cccc(Cl)c1,,inactive: 0.195%
O=C1CSc2ccc(C(=O)NCCC3=CCCCC3)cc2N1,"inconclusive [inhibitor, partial curve, poor fit]",
COc1cc(C2SCC(=O)N2c2nnc(C34CC5CC(CC(C5)C3)C4)s2)cc(OC)c1OC (stereo not drawn),active: 18.4 µM,
O=[N+]([O-])c1ccccc1Nc1cccnc1,,inactive: -21%
O=C(c1ccc(S(=O)(=O)Nc2ccccc2F)cc1)N1CCCCCC1,,inactive: -0.604%
O=C(NCc1ccc(C(F)(F)F)cc1)c1cccc2c(-c3ccc(F)c(F)c3)coc12,"inconclusive [inhibitor, single point]",
Cn1c(=O)n(C)c2cc(NC(=O)c3ccccc3[N+](=O)[O-])c(Br)cc21,,inactive: -14.7%
CCOc1ccc(C(=O)Nc2ccccc2C#N)cc1[N+](=O)[O-],active: 16.4 µM,
CCCCn1c(N)c(N(CC(C)C)C(=O)c2cc3ccccc3cc2OC)c(=O)[nH]c1=O,,inactive: -2.82%
Cc1ccc2nc(Cl)c(CN(Cc3cccs3)C(=O)C3CC3)cc2c1,"inconclusive [inhibitor, partial curve]",
C/C(=N\Nc1ccc([N+](=O)[O-])cc1[N+](=O)[O-])c1cccnc1,,inactive: -12%
Cc1ccccc1CN1C(=O)c2ccccc2C1c1nnnn1-c1ccc2c(c1)OCCO2 (stereo not drawn),active: 5.17 µM,
CCOc1ccc(NC(=O)NN2C(C)CCCC2C)cc1 (stereo not drawn),"inconclusive [inhibitor, single point]",
CCc1ccc(NC(=O)C(=O)NCC(c2cccnc2)N2CCN(C)CC2)cc1 (stereo not drawn),,inactive: -23.3%
CNS(=O)(=O)c1cccc(C(=O)OCC(=O)c2c(N)n(C)c(=O)n(C)c2=O)c1,,inactive: -7.13%
